These are yes or no findings as the source states them, for the method shown. Binding seen in cells or lysates may run through a third protein. Some entries that bind do so weakly or less than the wild type.

Assay [1] has as its target T1, Smc3^QQ R1008I S72C (S. cerevisiae) (UniProt P47037).
T1 sequence: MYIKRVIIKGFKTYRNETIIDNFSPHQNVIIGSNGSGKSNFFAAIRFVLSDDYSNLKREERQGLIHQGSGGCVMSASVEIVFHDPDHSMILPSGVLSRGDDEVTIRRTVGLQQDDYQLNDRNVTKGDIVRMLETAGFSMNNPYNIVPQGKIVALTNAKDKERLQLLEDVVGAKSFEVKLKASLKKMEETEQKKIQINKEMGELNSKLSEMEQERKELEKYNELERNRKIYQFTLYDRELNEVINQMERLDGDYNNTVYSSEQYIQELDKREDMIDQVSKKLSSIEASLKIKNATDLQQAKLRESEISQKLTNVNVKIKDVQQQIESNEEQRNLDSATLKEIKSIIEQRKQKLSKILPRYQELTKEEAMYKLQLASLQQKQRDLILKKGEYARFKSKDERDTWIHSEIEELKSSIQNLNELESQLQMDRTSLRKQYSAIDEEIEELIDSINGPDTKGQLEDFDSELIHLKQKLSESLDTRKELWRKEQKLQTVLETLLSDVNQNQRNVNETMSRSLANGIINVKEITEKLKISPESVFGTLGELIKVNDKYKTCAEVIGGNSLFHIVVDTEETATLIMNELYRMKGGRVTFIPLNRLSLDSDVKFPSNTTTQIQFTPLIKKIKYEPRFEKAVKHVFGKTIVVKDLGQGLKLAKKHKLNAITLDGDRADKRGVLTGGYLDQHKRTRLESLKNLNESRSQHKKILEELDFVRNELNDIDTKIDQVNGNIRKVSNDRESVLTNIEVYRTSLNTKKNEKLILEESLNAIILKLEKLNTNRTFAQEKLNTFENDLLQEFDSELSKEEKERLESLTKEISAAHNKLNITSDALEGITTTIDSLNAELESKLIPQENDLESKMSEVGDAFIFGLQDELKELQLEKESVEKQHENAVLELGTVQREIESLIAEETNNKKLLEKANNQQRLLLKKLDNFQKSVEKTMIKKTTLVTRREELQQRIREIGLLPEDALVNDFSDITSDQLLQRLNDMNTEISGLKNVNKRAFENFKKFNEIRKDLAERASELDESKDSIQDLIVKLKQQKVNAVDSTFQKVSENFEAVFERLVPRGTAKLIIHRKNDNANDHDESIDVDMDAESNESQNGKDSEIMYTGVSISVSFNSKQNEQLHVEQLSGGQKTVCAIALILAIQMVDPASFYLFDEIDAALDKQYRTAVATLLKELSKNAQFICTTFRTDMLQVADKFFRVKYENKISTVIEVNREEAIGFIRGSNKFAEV
Description: cross-linking; in vivo BMOE cross-link of cysteine pairs in yeast cells arrested in late G1 by non-degradable Sic1(9m); Scc1-PK immunoprecipitated, western blot, band intensities quantified. A general note: Immunoblotting shows a protein as a band on a membrane.

Assay [2] concerns the target T2, Smc3^QQ W483R Q67C (S. cerevisiae) (UniProt P47037).
T2 sequence: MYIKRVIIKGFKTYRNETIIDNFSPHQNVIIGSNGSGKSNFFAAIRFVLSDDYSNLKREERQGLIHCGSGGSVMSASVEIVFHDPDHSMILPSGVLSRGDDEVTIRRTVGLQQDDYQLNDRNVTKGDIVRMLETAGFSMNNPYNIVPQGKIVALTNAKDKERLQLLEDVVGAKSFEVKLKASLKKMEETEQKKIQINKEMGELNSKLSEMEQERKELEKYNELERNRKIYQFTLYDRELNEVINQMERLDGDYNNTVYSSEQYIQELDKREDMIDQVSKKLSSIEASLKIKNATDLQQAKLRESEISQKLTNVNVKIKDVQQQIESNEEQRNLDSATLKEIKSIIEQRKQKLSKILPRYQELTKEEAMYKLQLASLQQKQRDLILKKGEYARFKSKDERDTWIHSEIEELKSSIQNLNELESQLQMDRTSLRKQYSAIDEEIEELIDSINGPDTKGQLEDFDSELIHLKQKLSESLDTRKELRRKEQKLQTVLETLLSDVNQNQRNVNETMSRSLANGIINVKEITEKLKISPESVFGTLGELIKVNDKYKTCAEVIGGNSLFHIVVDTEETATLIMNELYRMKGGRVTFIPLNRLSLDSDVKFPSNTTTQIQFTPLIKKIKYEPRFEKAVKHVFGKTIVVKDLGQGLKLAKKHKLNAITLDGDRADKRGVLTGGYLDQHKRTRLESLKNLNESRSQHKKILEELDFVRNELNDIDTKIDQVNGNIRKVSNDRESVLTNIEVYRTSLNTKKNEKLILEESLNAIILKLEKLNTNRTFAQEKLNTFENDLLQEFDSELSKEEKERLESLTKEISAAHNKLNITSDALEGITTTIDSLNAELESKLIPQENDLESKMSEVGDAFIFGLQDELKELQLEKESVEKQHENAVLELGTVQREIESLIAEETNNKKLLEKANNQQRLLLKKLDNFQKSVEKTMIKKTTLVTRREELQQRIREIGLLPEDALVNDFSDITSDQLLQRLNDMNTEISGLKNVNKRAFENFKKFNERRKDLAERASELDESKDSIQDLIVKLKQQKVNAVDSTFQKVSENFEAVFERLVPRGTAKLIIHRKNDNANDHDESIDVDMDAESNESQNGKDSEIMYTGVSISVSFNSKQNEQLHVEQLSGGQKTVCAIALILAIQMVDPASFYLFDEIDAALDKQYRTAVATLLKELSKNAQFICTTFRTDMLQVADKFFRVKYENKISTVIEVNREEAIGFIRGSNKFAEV
The assay is described as above.

B1: Scc2 E819C (natural protein, S. cerevisiae, UniProt Q04002 1-1493, looked up)
chain: MSYPGKDKNIPGRIIEALEDLPLSYLVPKDGLAALVNAPMRVSLPFDKTIFTSADDGRDVNINVLGTANSTTSSIKNEAEKERLVFKRPSNFTSSANSVDYVPTNFLEGLSPLAQSVLSTHKGLNDSINIEKKSEIVSRPEAKHKLESVTSNAGNLSFNDNSSNKKTKTSTGVTMTQANLAEQYLNDLKNILDIVGFDQNSAEIGNIEYWLQLPNKKFVLTTNCLTKLQMTIKNITDNPQLSNSIEITWLLRLLDVMVCNIKFSKSSLKMGLDDSMLRYIALLSTIVLFNIFLLGKNDSNLHRESYIMEPVNFLSDLIESLKILTIEYGSLKIEFDTFQEALELLPKYIRNGPFLDDNVTAKLVYIFSDLLMNNDIEATTNIQFQSFWDNVKRISSDILVSLFGSFDQQRGFIIEELLSHIEKLPTKRIQKKLRKVGNQNIYITDFTFTLMSMLENINCYSFCNQMKDIAPENIDLLKNEYKKQEEFLFNIVEHINDTILERFFKNPSALRYVIDNFVQDLLLLISSPQWPVTEKILSSLLKRLLSVYSPSMQVSANIETICLQLIGNIGSTIFDIKCSTRDHEDNNLIKMINYPETLPHFFKSFEECIAYNETIKCRRSATRFLWNLRLGTILILEEYTKDAKEQIITVDNELKKILEQIKDGGLGPELENREADFSTIKLDYFSILHAFELLNLYDPYLKLILSLLAKDKIKLRSTAIKCLSMLASKDKVILSNPMVKETIHRRLNDSSASVKDAILDLVSINSSYFEFYQQINNNYNDDSIMVRKHVLRINEKMYDETNDIVTKVYVIARILMKICDEEDNIIDMARLILLNRWILKVHEVLDQPEKLKEISSSVLLVMSRVAIMNEKCSQLFDLFLNFYLLNKEAHSKEAYDKITHVLTILTDFLVQKIVELNSDDTNEKNSIVDKQNFLNLLAKFADSTVSFLTKDHITALYPYMVSDEKSDFHYYILQVFRCTFEKLANFKQKFLYDLETTLLSRLPKMNVREIDEAMPLIWSVATHRHDTARVAKACSSCLSHLHPYINKANNEEAAIVVDGKLQRLIYLSTGFARFCFPKPSNDKIAFLQEGETLYEHITKCLLVLSKDKITHVIRRVAVKNLTKLCGNHPKLFNSRHVLHLLDKEFQSDQLDIKLVILESLYDLFLLEERKSVRNTGVNSTLSSNSILKKKLLKTNRVEFANDGVCSALATRFLDNILQLCLLRDLKNSLVAIRLLKLILKFGYTNPSHSIPTVIALFASTSQYIRHVAYELLEDLFEKYETLVFSSLSRGVTKAIHYSIHTDEKYYYKHDHFLSLLEKLCGTGKKNGPKFFKVLKRIMQSYLDDITDLTSTNSSVQKSIFVLCTNISNITFVSQYDLVSLLKTIDLTTDRLKEVIMDEIGDNVSSLSVSEEKLSGIILIQLSLQDLGTYLLHLYGLRDDVLLLDIVEESELKNKQLPAKKPDISKFSAQLENIEQYSSNGKLLTYFRKHVKDT
notes: Scc2, S. cerevisiae; source: S. cerevisiae W303, in vivo, whole-cell extract
Regarding B1, the binding entry in assay [1] is given as “binds”.

B2: Scc2 T1175C (natural protein, S. cerevisiae, UniProt Q04002 1-1493, looked up)
chain: MSYPGKDKNIPGRIIEALEDLPLSYLVPKDGLAALVNAPMRVSLPFDKTIFTSADDGRDVNINVLGTANSTTSSIKNEAEKERLVFKRPSNFTSSANSVDYVPTNFLEGLSPLAQSVLSTHKGLNDSINIEKKSEIVSRPEAKHKLESVTSNAGNLSFNDNSSNKKTKTSTGVTMTQANLAEQYLNDLKNILDIVGFDQNSAEIGNIEYWLQLPNKKFVLTTNCLTKLQMTIKNITDNPQLSNSIEITWLLRLLDVMVCNIKFSKSSLKMGLDDSMLRYIALLSTIVLFNIFLLGKNDSNLHRESYIMEPVNFLSDLIESLKILTIEYGSLKIEFDTFQEALELLPKYIRNGPFLDDNVTAKLVYIFSDLLMNNDIEATTNIQFQSFWDNVKRISSDILVSLFGSFDQQRGFIIEELLSHIEKLPTKRIQKKLRKVGNQNIYITDFTFTLMSMLENINCYSFCNQMKDIAPENIDLLKNEYKKQEEFLFNIVEHINDTILERFFKNPSALRYVIDNFVQDLLLLISSPQWPVTEKILSSLLKRLLSVYSPSMQVSANIETICLQLIGNIGSTIFDIKCSTRDHEDNNLIKMINYPETLPHFFKSFEECIAYNETIKCRRSATRFLWNLRLGTILILEEYTKDAKEQIITVDNELKKILEQIKDGGLGPELENREADFSTIKLDYFSILHAFELLNLYDPYLKLILSLLAKDKIKLRSTAIKCLSMLASKDKVILSNPMVKETIHRRLNDSSASVKDAILDLVSINSSYFEFYQQINNNYNDDSIMVRKHVLRINEKMYDETNDIVTKVYVIARILMKIEDEEDNIIDMARLILLNRWILKVHEVLDQPEKLKEISSSVLLVMSRVAIMNEKCSQLFDLFLNFYLLNKEAHSKEAYDKITHVLTILTDFLVQKIVELNSDDTNEKNSIVDKQNFLNLLAKFADSTVSFLTKDHITALYPYMVSDEKSDFHYYILQVFRCTFEKLANFKQKFLYDLETTLLSRLPKMNVREIDEAMPLIWSVATHRHDTARVAKACSSCLSHLHPYINKANNEEAAIVVDGKLQRLIYLSTGFARFCFPKPSNDKIAFLQEGETLYEHITKCLLVLSKDKITHVIRRVAVKNLTKLCGNHPKLFNSRHVLHLLDKEFQSDQLDIKLVILESLYDLFLLEERKSVRNCGVNSTLSSNSILKKKLLKTNRVEFANDGVCSALATRFLDNILQLCLLRDLKNSLVAIRLLKLILKFGYTNPSHSIPTVIALFASTSQYIRHVAYELLEDLFEKYETLVFSSLSRGVTKAIHYSIHTDEKYYYKHDHFLSLLEKLCGTGKKNGPKFFKVLKRIMQSYLDDITDLTSTNSSVQKSIFVLCTNISNITFVSQYDLVSLLKTIDLTTDRLKEVIMDEIGDNVSSLSVSEEKLSGIILIQLSLQDLGTYLLHLYGLRDDVLLLDIVEESELKNKQLPAKKPDISKFSAQLENIEQYSSNGKLLTYFRKHVKDT
notes: as for B1
For B2, in assay [2], the binding result is on record as “binds”.
